According to article PMC12136788:
This is one part of the list.

B1: chr6:350928:351029:+|3pUTR|ENSG00000112679|unk|total|mutant (ssRNA)
RNA: GGGAGUUCUACAGUCCGACGAUCCCACAGAGUUCCGGCUGGUGCUGCCAAAAAGAAAAGCAACACCGAGUUUAAGUAUCCAGCCGUGAUUUGUAAACUUGUUUUUCAUUUGAAGCUGAAUAUAUACGCCGUCAUGUUUAUGUUCAACAGAGGAUUGAGCAUCA
B2: ENSG00000136451:be:win_2151|3pUTR|ENSG00000136451|bound_else_gene|NA|bound_elsewhere_windowed (ssRNA)
RNA: GGGAGUUCUACAGUCCGACGAUCUAUGCAAAGCAUAUGAUAAUUUAUCAUUCUAACUUCAACGUAUAAUAGGGAUUGUGACCUGAUAUUUGGAGAUGUAAAUAUUGCUCAGCAUAUUAAUCCCGAUGGAAUAUAGCAUUGUAGCAACAGAGGAUUGAGCAUCA
B3: chrX:120627021:120627135:-|CDS|ENSG00000171155|unk|total|mutant (ssRNA)
RNA: GGGAGUUCUACAGUCCGACGAUCUUGAAGGGUGUGAUGCUUGGAAGCAUUUUCUGUGCUUUGAUCACUAUGCCCGGACACAUCCGGAUUGGUCAUGGAAACCGAAUGCACCACCAUGAGCAUCAUCACCUACAAGCUCCUAACCAACAGAGGAUUGAGCAUCA
B4: chr14:100884374:100884478:-|CDS|ENSG00000254656|unk|FALSE|unique (ssRNA)
RNA: GGGAGUUCUACAGUCCGACGAUCGAGGAGUCAUGCAACGGUUCACACCAGGCAAGGGGGGAUCCACUCAGUGGAGCAUCUGAUAGGAUGAAAGAAGCAUCAGUCAACCCAUCGGGAGCCCGAGAAGAACAAGAGGCUCACACUCAACAGAGGAUUGAGCAUCA
B5: chr18:9257137:9257239:+|CDS|ENSG00000101745|unk|total|mutant (ssRNA)
RNA: GGGAGUUCUACAGUCCGACGAUCUCUCCGGUCAUCUUCUGCCGAAGAUGUUAAACUAAUUAUAAGCGAGGGGAGACCUACCACCGAAGUUCGAAGAUGCCGCAUGCCUUCUGUCAUUUGUGAACAUACCAAACAAUUCCAAACCAACAGAGGAUUGAGCAUCA
B6: chr16:67175568:67175669:+|3pUTR|ENSG00000140939|msi1|FALSE|unique (ssRNA)
RNA: GGGAGUUCUACAGUCCGACGAUCUUAGAGCUCACAGCCUUGGGAAGUGAGACUAGAAGAGGGGAGCAGAAAGGGACCUUGAGUAGACAAAGGCCACACACAUCAUUGUCAUUACUGUUUUAAUUGUCUGGCUUCUCUCUGGACCAACAGAGGAUUGAGCAUCA
B7: chr2:39051162:39051270:-|CDS|ENSG00000115904|unk|FALSE|unique (ssRNA)
RNA: GGGAGUUCUACAGUCCGACGAUCAAAUAUAUUUAGUCGCAUAGUAGAUAUACAUGAACUUAGUGUAAAGUUACUGGGCCAUAUAGAAGAUACAGUAGAAAUGACAGAUGAAGGCAGUCCCCAUCCACUAGUAGGAAGCUGCUUCAACAGAGGAUUGAGCAUCA
B8: chrX:154027874:154027956:-|3pUTR|ENSG00000169057|msi1_unk|total|mutant (ssRNA)
RNA: GGGAGUUCUACAGUCCGACGAUCUGGUCCGAAGUGAGGGAGUUUGCCCCGUUCUGUUUGCCGAGUCUCACCGUUGGACUUUCCCGCAUAUAUGUGUCCAUUUCCUUAUGCUGUAAAAGCAAGUCCUGCAACCAAACUCCCAUCCAACAGAGGAUUGAGCAUCA
B9: chr2:135782819:135782876:+|CDS|ENSG00000144224|msi1_unk|total|mutant (ssRNA)
RNA: GGGAGUUCUACAGUCCGACGAUCGUGAGAAAAAGAGUGCUGGAAAAACGUGGAGACGACUUUAAAAAGGAGGGGAAAAUUUACCGAUUAAGGACUCAAGAUGAUGGUGAAGAUGAAAACAACACUUGGAAUGGAAAUUCCACUCAACAGAGGAUUGAGCAUCA
B10: chr14:22589090:22589186:-|5pUTR_CDS|ENSG00000129562|msi1_unk|FALSE|overlapping (ssRNA)
RNA: GGGAGUUCUACAGUCCGACGAUCUCCUCCAAGAGUUUGGGGCGCGGACCGGAGUACCUUGCGUGCAGUUAUGUCGGCGUCGGUAGUGUCUGUCAUUUCGCGGUUCUUAGAAGAGUACUUGAGCUCCACUCCGCAGCGUCUGAACAACAGAGGAUUGAGCAUCA
B11: chr1:153626309:153626462:-|CDS|ENSG00000189171|unk|FALSE|unique (ssRNA)
RNA: GGGAGUUCUACAGUCCGACGAUCUCCAUUGAGACCGUGGUCACCACCUUCUUCACCUUUGCAAGGCAGGAGGGCCGGAAGGAUAGCCUCAGCGUCAACGAGUUCAAAGAGCUGGUUACCCAGCAGUUGCCCCAUCUGCUCAAGCAACAGAGGAUUGAGCAUCA
B12: chr13:36848462:36848578:-|3pUTR|ENSG00000120693|unk|total|mutant (ssRNA)
RNA: GGGAGUUCUACAGUCCGACGAUCAAAUACACCGAAUGUAUACUGUUCUUAUUUUUUUUAAUCACCGUUUGUUUUGUGCUUUCCCGUUAACCUGAUGCCAGUACAGUGCAAUUGGAAAAGCAGGACUUUGGUGCCUGUGCUAUACAACAGAGGAUUGAGCAUCA
B13: chr2:181535040:181538244:-|three_prime_utr|ENSG00000188452|control|control|control (ssRNA)
RNA: GGGAGUUCUACAGUCCGACGAUCAGCAUGGAAGAAAUGAUUCCAAAGUAACAUGUAAUUGUUUCUAAAAGAAAUGUACAAACUAGAAUUUUAAUAUAAAGAAAUGUGGCCAUGCUUUAAACCUGUGGUCCCCACCCUUUUUGGCAACAGAGGAUUGAGCAUCA
B14: chr17:29166540:29166641:-|CDS|ENSG00000196535|unk|total|mutant (ssRNA)
RNA: GGGAGUUCUACAGUCCGACGAUCCUGGACUCGGGCCACCUAAGUACAGCCAGCUCCAGCGAUGACCUCAAGGGUGAGGAGGGCCGCUUCCGUGGCUCGGUGCUGCAGCGGGCAGCCAAGUUCGGCUCACUGGCCAAGCAGAACCAACAGAGGAUUGAGCAUCA
B15: chr10:22535117:22535218:-|3pUTR|ENSG00000150867|unk|FALSE|unique (ssRNA)
RNA: GGGAGUUCUACAGUCCGACGAUCAAGGUACACAUACAUUAUUUGAGUAACUGUUUCCUUGGGGGCCAAUCUGUGUAUGCUUUUAGAAGUUUACAGAAUGCUUUUAUUUUUGUCUAUAACAAACAGUCUGUCAUUUAUUUCUGUCAACAGAGGAUUGAGCAUCA
B16: chr13:110149562:110149758:-|3pUTR|ENSG00000187498|msi1|total|mutant (ssRNA)
RNA: GGGAGUUCUACAGUCCGACGAUCUAAAUAUAUAUAUAUAUCCGUAAUUUAUACCGAUGUCAGCAAUCCGGCAGAUCAAGGUUCCGUUUAACUUCCACUGUUAAAAUAAAGCUUACACCGUUUUCUUCCUUUGAAAGACUGUGCCAACAGAGGAUUGAGCAUCA
B17: ENSG00000135862:stop:overlap|stop_codon|ENSG00000135862|stop_codon|NA|stop_codon (ssRNA)
RNA: GGGAGUUCUACAGUCCGACGAUCAGGACAUCAGGAAGACCUUACCAUCUGGCUGCUUCAACACCCCGUCCAUUGAAAAGCCCUAGUGUCUUUAGGGCUGGAAGGCAGCAUCCCUCUGACAGGGGGGCAGUUGUGAGGCCACAGCAACAGAGGAUUGAGCAUCA
B18: chr8:97851660:97851768:+|3pUTR|ENSG00000104341|msi1_unk|FALSE|overlapping (ssRNA)
RNA: GGGAGUUCUACAGUCCGACGAUCAUUAACUGUAGAAUUCUUCCUGUACGAUUGGGGAUAUAAUGGGCUUCACUAACCUUCCCUAGGCAUUGAAACUUCCCCCAAAUCUGAUGGACCUAGAAGUCUGCUUUUGUACCUGCUGGGCAACAGAGGAUUGAGCAUCA
B19: chr3:196782704:196782805:+|CDS|ENSG00000180370|unk|total|mutant (ssRNA)
RNA: GGGAGUUCUACAGUCCGACGAUCAACGGAGAACUGGAAGAUAAGCCUCCAGCACCUCCUGUGCGAAUGAGCAGCACCAUCUUCCGCACUGGAGGCAAAGACCCUUUGUCAGCCAAUCACAGUUUGAAACCUUUGCCCUCUGUUCAACAGAGGAUUGAGCAUCA
B20: chr2:128193554:128193655:+|3pUTR|ENSG00000136731|msi1|FALSE|unique (ssRNA)
RNA: GGGAGUUCUACAGUCCGACGAUCCCUUGUCAAGGCUCUGCCUGAAUGAGUUUUCAUCUGAUUGUGGGGACCAAGUCCCUGAGUAGAGGGCCAAGAGCUAGGGACAGGGGGAAGAGACUGGCCCAGGUGGUAGGGAGGAAAGAACAACAGAGGAUUGAGCAUCA
B21: chr3:89481969:89482070:+|3pUTR|ENSG00000044524|msi1|total|mutant (ssRNA)
RNA: GGGAGUUCUACAGUCCGACGAUCAUAUGUGUUUACUUUAAACUUGUCUUUUCAAAAUAUUACUCAGUUUAUGUUGUACAAUGCCGAUGGCCUCUUACUAAUGUAAAAUGAUUUGCCGUGGAAACAUUUAUAUUUUUAUAAUAACAACAGAGGAUUGAGCAUCA
B22: chr14:22612100:22612201:+|3pUTR|ENSG00000100439|msi1|FALSE|unique (ssRNA)
RNA: GGGAGUUCUACAGUCCGACGAUCCCACCCCUGACCCAUCUGUCAGCUUUUUCCCAGGGAGCCGUUUCAGGGGUUCUGGGCAGUAGGCUGGGCCUGGCCUCAGAACCUGGUGGCUCCUGCCUGCUCCUUCACUUUUGUAAAACCCAACAGAGGAUUGAGCAUCA

Target: MSI1 full-length (mouse, UniProt Q61474 1-362)
UniProt Q61474, sequence (Q61474 whole entry): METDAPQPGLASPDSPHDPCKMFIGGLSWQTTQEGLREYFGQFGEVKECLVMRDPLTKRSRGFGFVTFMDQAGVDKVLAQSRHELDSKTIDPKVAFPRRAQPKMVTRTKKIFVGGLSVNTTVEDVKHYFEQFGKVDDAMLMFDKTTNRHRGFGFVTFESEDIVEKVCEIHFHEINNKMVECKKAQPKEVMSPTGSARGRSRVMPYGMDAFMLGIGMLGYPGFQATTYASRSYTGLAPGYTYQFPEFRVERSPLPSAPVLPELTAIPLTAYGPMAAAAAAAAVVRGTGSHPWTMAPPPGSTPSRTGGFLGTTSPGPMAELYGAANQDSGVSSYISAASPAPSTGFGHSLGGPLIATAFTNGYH
Experiment: nsRBNS (natural sequence RNA bind-n-seq); RBNS binding buffer (assumed for nsRBNS): 25 mM Tris pH 7.5, 150 mM KCl, 3 mM MgCl2, 0.01% Triton X-100, 500 ug/ml BSA, 20 U/ml SUPERase-In, 4 C; UNK is unkempt and MSI1 is Musashi-1; names of the RNAs are library labels; protein concentration not given here; high values mean tight binding

Row | Binder | binding signal [enrichment R]
1 | B1 | 0.238
2 | B2 | 2.06
3 | B3 | 0.203
4 | B4 | 0.4
5 | B5 | 0.349
6 | B6 | 0.616
7 | B7 | 15.1
8 | B8 | 0.775
9 | B9 | 0.521
10 | B10 | 0.704
11 | B11 | 0.348
12 | B12 | 1.44
13 | B13 | 4.05
14 | B14 | 0.486
15 | B15 | 0.778
16 | B16 | 2.59
17 | B17 | 0.431
18 | B18 | 0.651
19 | B19 | 0.36
20 | B20 | 0.555
21 | B21 | 0.91
22 | B22 | 1.41
